Series [1] relates to esterase from the porcine liver. As to the kind of experiment: In vitro stability in porcine esterase solution (HPLC). Type of series: in vitro ADME. Details: half-life: dose or concentration left out as unconfirmed. The procedure: The HPLC analysis of samples at various time intervals from in vitro stability in different buffers and porcine esterase solution was performed on Shimadzu Prominence-i LC-2030C 3 D Plus equipped with RID20A. Detector chromatographic separation were carried out using Chromolith SpeedROD RP […], Merck. Spectra were analysed in 200–800 nm range with 1.2 nm resolution. The column was maintained at 30 °C and eluted under gradient conditions from 100% to 0% of eluent A over 3 min, at a flow rate of 5 ml min^−1. Eluent A: water/trifluoroacetic acid (0.1%, v/v); eluent B: acetonitrile/ trifluoroacetic acid (0.1%, v/v).
0.001 g of lyophilised powder of esterase from the porcine liver (Sigma-Aldrich, St. Louis, Missouri, USA) was reconstituted in 1.0 ml PBS buffer (0.01 M, pH 7.4) to make an aqueous porcine esterase solution (5 U/mL), and then pre-thermostated at 37 °C. To a test tube containing 1.85 ml of PBS buffer, 0.15 ml from the stock solution of the test compound was added. The mixture was then stirred and thermostated in a sand bath at 37 °C, and 1.0 ml of the porcine esterase solution was added to initiate the enzymatic reaction. For the negative control reaction, the volume of porcine esterase solution was replaced by phosphate buffer. Aliquots (0.3 ml) were withdrawn at 0, 30, 60, 120, 180, and 240 min, and quenched with cold acetonitrile (0.7 ml)[28]. The samples were centrifuged for 6 min at 10,000 rpm, and supernatants were analysed by HPLC to check the amounts (area under the curve, AUC) of the remaining intact compound. All the experiments were performed in triplicate. Pseudo-first-order rate constant for the hydrolysis was determined from the slope of linear plots of the natural logarithm (ln) of the AUC of the peak at time t (AUCt) against time. Half-life (t1/2) was calculated according to Equation (1): (1) t1/2 = ln 2/k were k is the pseudo-first-order rate constant.
Similarly, the parent compound 1 should be efficiently regenerated. Therefore, the enzymatic stability of 3 in porcine esterase solution was investigated.

The test system of series [2] is human prostate cancer cells (DU145). As to the kind of experiment: MTT cell viability assay, DU145. Type of series: cell-based. Particulars: DU145 cells, 1, 10 and 50 μM, 72 h. Here is the method: (§1) Experiments were performed on human prostate cancer cells (DU145; ATCC HTB-81), human lung cancer cells (A549; ATCC CCL-185-LUC2) and human bronchial epithelium cells (BEAS-2B; ATCC CRL-9609). Cells were grown in Dulbecco's modified Eagle's medium (DMEM) supplemented with 10% of heat-inactivated foetal bovine serum (FBS), 100 U/ml penicillin and 100 μg/ml streptomycin (Sigma-Aldrich, Steinheim, Germany). Cells were incubated at 37 °C in a humidified atmosphere with 5% CO2. […] Cells were seeded into 96-well plates at a density of 7,0 × 10[3] cells/well in 100 µl of culture medium. After 24 h, cells were treated with the compounds at three different concentrations (1 µM, 10 µM and 50 µM) for 72 h. Following treatments, 0.5 mg/ml of 3-[4,5-dimethylthiazol-2-yl]-2,5-diphenyltetrazolium bromide (MTT) (Sigma Aldrich) was added to each well and incubated for 4 h at 37 °C. Finally, DMSO was used to dissolve formazan salts and absorbance was measured at 570 nm in a microplate reader (Biotek Synergy-HT). […]
(§2) Compound 3 was preliminarily assessed for its cytotoxic activity towards human prostate and lung cancer cell lines (DU145 and A549, respectively), in which the overexpression of the HO-1 has been confirmed[46]^,[47]. […] Cell survival was calculated compared to untreated controls for 72 h. At the end of treatment, cell viability was evaluated using the MTT assay. […]
(In general: Tetrazolium dyes change colour on reduction, which living cells bring about.)

Series [3] relates to human lung cancer cells (A549). As to the kind of experiment: MTT cell viability assay, A549. Type of series: cell-based. Particulars: 72 h. The procedure:
as §1, §2

Usually IC50 stands for the concentration at which inhibition is half-maximal. A word on the melting point: it is the temperature, or range, at which the solid turns liquid.

SMILES strings stand for the structures.

Take `O=C(CCC(=O)OC(Cn1ccnc1)c1cccc(Br)c1)OCn1cc(F)c(=O)[nH]c1=O` (stereo not shown) [Compound 3, 1‐[1‐(3‐bromophenyl)‐2‐(1H‐imidazol‐1‐yl)ethyl]4‐(5‐fluoro‐2,4‐dioxo‐1,2,3,4‐tetrahydropyrimidin‐1‐yl)methyl butanedioate]: the melting point fell in the range of 172 to 174.5 °C. Further, in series [1] (24 h incubation in porcine esterase solution), the “Detection of intact compound after incubation” value is “not detected”. The half-life in series [1] (pig, porcine liver esterase solution, porcine esterase solution, PBS pH 7.4, 37 °C, read-out: Half-life (t1/2) of hydrolysis) was determined as 2.27 h. Moreover, the “Pseudo-first-order rate constant k of hydrolysis” value in series [1] (porcine esterase solution, PBS pH 7.4, 37 °C) amounted to 0.00507 min⁻¹. Besides, the “Effect on cell viability” value in series [2] is “significant dose-dependent effect”. Besides, the “Effect on cell viability” value in series [3] (A549 cells, 1, 10 and 50 μM) is “significant dose-dependent effect”. In series [3] (Homo sapiens, A549 cells, MTT), the IC50 was 1450 ± 1040 nM.

Values taken from paper PMC8231349 (Journal of Enzyme Inhibition and Medicinal Chemistry, 2021).
